Source: the supplement of paper PMC12578646, “Prodrug florfenicol amine is activated by intrinsic resistance to target Mycobacterium abscessus” (Nature Microbiology, 2025)
M. abscessus ATCC 19977 and its deletion, point and complemented mutants after 5 days of drug at 37 °C plus 24 h of resazurin. Growth in % of untreated wells at the dose given (lower = more inhibition); checkerboards give % inhibition (higher = more inhibition); IC50 from the fitted curve (lower = more potent). No active / inactive call. IC50 values come from the same 384-well curves. Growth is not capped and can exceed 100%. The direction of the checkerboard scale is read from the raw signals. Capreomycin is a mixture.

Legend:
Test in all cases: growth relative to untreated wells; higher = more growth (less inhibition)
[1] = system: Mycobacterium abscessus ATCC 19977 WhiB7 L37P
Experimental: (§1)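 384-well two-fold dose series, two replicates; 5 days at 37 °C, then 24 h with resazurin; fluorescence scaled to growth and killed controls.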

[2] = system: Mycobacterium abscessus ATCC 19977 ΔwhiB7
Experimental: as §1

[3] = system: Mycobacterium abscessus ATCC 19977 WhiB7 R76del
Experimental: as §1

[4] = system: Mycobacterium abscessus ATCC 19977 Δeis2
Experimental: as §1

[5] = system: Mycobacterium abscessus ATCC 19977 Eis2 Y284*
Experimental: as §1

[6] = system: Mycobacterium abscessus ATCC 19977 WhiB7 F24fs
Experimental: as §1

[7] = system: Mycobacterium abscessus ATCC 19977 Eis2 Y227D
Experimental: as §1

[8] = system: Mycobacterium abscessus ATCC 19977
Experimental: as §1

[9] = system: Mycobacterium abscessus ATCC 19977 WhiB7 A51T
Experimental: as §1

[10] = system: Mycobacterium abscessus ATCC 19977 Eis2 E120fs
Experimental: as §1

[11] = system: Mycobacterium abscessus ATCC 19977 WhiB7 T70fs
Experimental: as §1

[12] = system: Mycobacterium abscessus ATCC 19977 Eis2 T258R
Experimental: as §1

[13] = system: Mycobacterium abscessus ATCC 19977 Eis2 Y255*
Experimental: as §1

CC(C)/N=c1\cc2n(-c3ccc(Cl)cc3)c3ccccc3nc-2cc1Nc1ccc(Cl)cc1 [clofazimine]
Conditions	growth [%]
[1], 0.0078125 µg/mL	99.6
[1], 0.015625 µg/mL	92.4
[1], 0.03125 µg/mL	93.98
[1], 0.0625 µg/mL	91.3
[1], 0.125 µg/mL	98.7
[1], 0.25 µg/mL	41.3
[1], 0.5 µg/mL	-2.21
[1], 1 µg/mL	-5.29
[1], 2 µg/mL	-4.31
[1], 4 µg/mL	1.9
[1], 8 µg/mL	-3.79
[1], 16 µg/mL	-0.575
[2], 0.0078125 µg/mL	86.7
[2], 0.015625 µg/mL	94.5
[2], 0.03125 µg/mL	90.3
[2], 0.0625 µg/mL	89.4
[2], 0.125 µg/mL	85.9
[2], 0.25 µg/mL	57.6
[2], 0.5 µg/mL	19.4
[2], 1 µg/mL	-7.09
[2], 2 µg/mL	-5.71
[2], 4 µg/mL	22.7
[2], 8 µg/mL	-4.47
[2], 16 µg/mL	4.44
[3], 0.0078125 µg/mL	95.5
[3], 0.015625 µg/mL	100.8
[3], 0.03125 µg/mL	91.6
[3], 0.0625 µg/mL	97
[3], 0.125 µg/mL	88.8
[3], 0.25 µg/mL	96
[3], 0.5 µg/mL	-2.01
[3], 1 µg/mL	-4.01
[3], 2 µg/mL	-0.766
[3], 4 µg/mL	-3.21
[3], 8 µg/mL	-1.6
[3], 16 µg/mL	-4.55
[4], 0.0078125 µg/mL	95.91
[4], 0.015625 µg/mL	94.4
[4], 0.03125 µg/mL	91.27
[4], 0.0625 µg/mL	93.3
[4], 0.125 µg/mL	102
[4], 0.25 µg/mL	18.5
[4], 0.5 µg/mL	13.5
[4], 1 µg/mL	-5.1
[4], 2 µg/mL	-0.0564
[4], 4 µg/mL	5.39
[4], 8 µg/mL	-2.81
[4], 16 µg/mL	-4.08
[5], 0.0078125 µg/mL	90.93
[5], 0.015625 µg/mL	95.5
[5], 0.03125 µg/mL	90
[5], 0.0625 µg/mL	93.6
[5], 0.125 µg/mL	94.9
[5], 0.25 µg/mL	57.9
[5], 0.5 µg/mL	2.17
[5], 1 µg/mL	-4.28
[5], 2 µg/mL	-4.17
[5], 4 µg/mL	-2.54
[5], 8 µg/mL	-3.68
[5], 16 µg/mL	-4.11
[6], 0.0078125 µg/mL	99.2
[6], 0.015625 µg/mL	95.1
[6], 0.03125 µg/mL	91.313
[6], 0.0625 µg/mL	96.2
[6], 0.125 µg/mL	97.8
[6], 0.25 µg/mL	104
[6], 0.5 µg/mL	0.767
[6], 1 µg/mL	-3.9
[6], 2 µg/mL	-3.74
[6], 4 µg/mL	3.27
[6], 8 µg/mL	-3.32
[6], 16 µg/mL	-0.545
[7], 0.0078125 µg/mL	99.7
[7], 0.015625 µg/mL	112
[7], 0.03125 µg/mL	95
[7], 0.0625 µg/mL	99.1
[7], 0.125 µg/mL	96.3
[7], 0.25 µg/mL	64.2
[7], 0.5 µg/mL	-0.878
[7], 1 µg/mL	-2.75
[7], 2 µg/mL	-2.66
[7], 4 µg/mL	-2.2
[7], 8 µg/mL	0.0453
[7], 16 µg/mL	-1.25
[8], 0.0078125 µg/mL	92.5
[8], 0.015625 µg/mL	98.88
[8], 0.03125 µg/mL	94.6
[8], 0.0625 µg/mL	94.04
[8], 0.125 µg/mL	92.1
[8], 0.25 µg/mL	65.2
[8], 0.5 µg/mL	-1.13
[8], 1 µg/mL	-3.73
[8], 2 µg/mL	-4.12
[8], 4 µg/mL	1.01
[8], 8 µg/mL	0.78
[8], 16 µg/mL	2.71
[9], 0.0078125 µg/mL	89.9
[9], 0.015625 µg/mL	93.8
[9], 0.03125 µg/mL	92.4
[9], 0.0625 µg/mL	99.5
[9], 0.125 µg/mL	94.2
[9], 0.25 µg/mL	60.8
[9], 0.5 µg/mL	-2.12
[9], 1 µg/mL	-4.33
[9], 2 µg/mL	0.791
[9], 4 µg/mL	-3.15
[9], 8 µg/mL	33.7
[9], 16 µg/mL	-1.64
[10], 0.0078125 µg/mL	101.16
[10], 0.015625 µg/mL	107
[10], 0.03125 µg/mL	94.7
[10], 0.0625 µg/mL	104
[10], 0.125 µg/mL	102
[10], 0.25 µg/mL	102
[10], 0.5 µg/mL	8.92
[10], 1 µg/mL	-3.94
[10], 2 µg/mL	-4.23
[10], 4 µg/mL	-3.13
[10], 8 µg/mL	-1.07
[10], 16 µg/mL	-2.07
[11], 0.0078125 µg/mL	91.3
[11], 0.015625 µg/mL	96.8
[11], 0.03125 µg/mL	96.9
[11], 0.0625 µg/mL	95.5
[11], 0.125 µg/mL	94.9
[11], 0.25 µg/mL	42.8
[11], 0.5 µg/mL	7.68
[11], 1 µg/mL	-6.35
[11], 2 µg/mL	-3.71
[11], 4 µg/mL	-3.09
[11], 8 µg/mL	-4.48
[11], 16 µg/mL	-5.31
[12], 0.0078125 µg/mL	87.4
[12], 0.015625 µg/mL	84.5
[12], 0.03125 µg/mL	92
[12], 0.0625 µg/mL	91.1
[12], 0.125 µg/mL	90.8
[12], 0.25 µg/mL	95.6
[12], 0.5 µg/mL	4.45
[12], 1 µg/mL	-4.67
[12], 2 µg/mL	-3.33
[12], 4 µg/mL	-2.57
[12], 8 µg/mL	-1.35
[12], 16 µg/mL	-3.45
[13], 0.0078125 µg/mL	94.1
[13], 0.015625 µg/mL	97.7
[13], 0.03125 µg/mL	87.8
[13], 0.0625 µg/mL	100
[13], 0.125 µg/mL	88.3
[13], 0.25 µg/mL	35.4
[13], 0.5 µg/mL	18.8
[13], 1 µg/mL	-5.41
[13], 2 µg/mL	-5.79
[13], 4 µg/mL	-2.67
[13], 8 µg/mL	-3.34
[13], 16 µg/mL	-6.81
